The supplement of paper PMC3334620
In all, about 33,000 sequences were measured (“E-score (-0.5 to 0.5)”: median about -0.036, highest 2% from about 0.37 on). This is one part of the list.

Each sequence was assayed against T1, Yer064c (UniProt P40041) (assay: PBM E-score (8-mer binding enrichment) (E-score (-0.5 to 0.5)); higher = stronger / more preferred TF binding; most listed sequences are background and not binding sites). Settings: protein concentration: 200 nM; construct: GST-full length.
T1 sequence: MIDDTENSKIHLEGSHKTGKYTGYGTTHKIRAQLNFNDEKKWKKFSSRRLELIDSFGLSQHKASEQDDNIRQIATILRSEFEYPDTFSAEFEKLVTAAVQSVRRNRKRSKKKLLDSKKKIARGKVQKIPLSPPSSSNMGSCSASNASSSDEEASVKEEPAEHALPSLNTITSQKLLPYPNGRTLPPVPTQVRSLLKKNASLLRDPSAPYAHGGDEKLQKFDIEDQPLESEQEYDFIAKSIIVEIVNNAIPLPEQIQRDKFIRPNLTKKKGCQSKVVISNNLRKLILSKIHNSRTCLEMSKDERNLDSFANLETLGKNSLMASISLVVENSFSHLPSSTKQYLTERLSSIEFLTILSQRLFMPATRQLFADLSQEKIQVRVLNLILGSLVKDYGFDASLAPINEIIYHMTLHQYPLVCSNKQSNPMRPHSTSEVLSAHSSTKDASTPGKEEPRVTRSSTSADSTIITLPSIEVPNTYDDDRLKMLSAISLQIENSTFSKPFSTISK
Procedure, shortened: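 Each ungapped eight-base word and its reverse complement, pooled, received an E-score from the Universal PBM Analysis Suite. Underlying scans, normalised with masliner, recorded fluorescent anti-GST bound to GST-tagged yeast transcription factors. These were applied at about 100-200 nM to universal all-10-mer Agilent arrays double-stranded by primer extension.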

| Sequence | PBM E-score |
| --- | --- |
| GTGCTCTA | -0.172 |
| AGATAACA | 0.0332 |
| CATAGAAC | -0.0992 |
| CCGATACA | -0.183 |
| CCCTCTGC | -0.226 |
| ATGCTGCG | -0.0996 |
| AATGGCGG | -0.171 |
| CTCAAACC | -0.0776 |
| AATCGGTC | 0.0165 |
| ACTAGTTG | 0.038 |
| GTACAGAC | 0.177 |
| CACAGTAG | 0.0897 |
| CCATCTTA | -0.00497 |
| CGAGGGAG | -0.0424 |
| AGTCTGCA | 0.214 |
| CAGCAGCA | -0.107 |
| AAGTCTGG | -0.117 |
| ATCATATG | 0.278 |
| GACTCGCA | 0.414 |
| GATAACGA | 0.0625 |
| ATCCATCG | -0.0255 |
| ATGTAGAG | -0.242 |
| CAAAATTG | -0.079 |
| CACAATGA | 0.231 |
| CCCTCTAG | -0.0457 |

| Sequence | PBM E-score |
| --- | --- |
| AGTCGGGA | 0.24 |
| AACCCGGC | -0.186 |
| GACTGCGC | 0.275 |
| TAGGGGCA | -0.214 |
| CATACTCA | 0.286 |
| CTTTAAAC | -0.16 |
| CGGATGAA | 0.0717 |
| GCTCTTCA | -0.0893 |
| ACCTCGTA | -0.00955 |
| CGCCACAC | -0.357 |
| ATAAAACA | 0.0178 |
| CCATAGCA | -0.025 |
| AGAGAAGG | -0.159 |
| ATTGAATC | 0.375 |
| AGACTAAG | 0.383 |
| ATTTCACG | 0.0504 |
| GAGCTTGA | 0.0286 |
| CGGAACCC | -0.142 |
| ACCTGCTA | -0.124 |
| AGTTGAGG | 0.00469 |
| ACTTATCC | 0.0374 |
| AAGGTTTC | 0.0314 |
| GCCTGGAC | -0.206 |
| AGGTCGCG | -0.153 |
| ACCTACCA | -0.0333 |

| Sequence | PBM E-score |
| --- | --- |
| CGAGAGGC | -0.247 |
| AAATACTC | 0.248 |
| GCGTCTAA | -0.097 |
| ATGGCGGG | -0.0628 |
| CGCTAGAA | -0.134 |
| CGGCAGCA | -0.417 |
| CGACTTCC | 0.201 |
| GCGCTTAA | -0.0183 |
| TCGTGGCA | -0.0418 |
| GGAGTCAC | 0.485 |
| GCCTTTCA | -0.182 |
| ATGGCAGG | -0.263 |
| GTCCGCAA | 0.00032 |
| AGACAAGG | -0.194 |
| ACTATGAA | 0.2 |
| ATGGGCGA | 0.0478 |
| CGCAGCTC | -0.196 |
| CCTATTGC | -0.246 |
| AAATACCT | -0.197 |
| GCATGGGA | -0.224 |
| AAATTCTC | -0.233 |
| GATCCCAA | -0.0873 |
| CGACCTGA | 0.185 |
| GCTGTATA | -0.136 |
| ACACTGGA | -0.0404 |

| Sequence | PBM E-score |
| --- | --- |
| AACGCCGT | -0.109 |
| AATCAGCG | 0.344 |
| GACATACA | -0.0664 |
| ACTAACTG | 0.27 |
| GCCAGAGA | -0.0259 |
| CATGAGGG | -0.0866 |
| CATTTGTC | -0.0893 |
| GTAGAGGA | -0.303 |
| ACCCTCGG | -0.163 |
| CATACTGA | 0.196 |
| CCCTTGAG | 0.0766 |
| GCCACTGA | 0.171 |
| ATAACTTC | -0.154 |
| GAAGGTTA | 0.0921 |
| AAGGAGGA | -0.212 |
| CCATAACG | -0.0401 |
| GAGCCTGA | 0.0249 |
| GGAAAATA | -0.141 |
| AACGTCTA | 0.0385 |
| ACCGCGAT | -0.133 |
| AAGATCCC | -0.11 |
| AGGCGATC | -0.099 |
| GGATGAGA | 0.0635 |
| ATTGGTGA | 0.121 |
| CGTGGTGC | -0.306 |

| Sequence | PBM E-score |
| --- | --- |
| ATTACACA | 0.253 |
| CCACATGC | 0.011 |
| GAGTTCAA | 0.2 |
| CGGTTTGC | -0.251 |
| AAAGATTG | -0.0779 |
| ACTTAGGG | 0.0998 |
| GGGCGGCA | -0.406 |
| CTGAATCC | 0.235 |
| AGCCTCAG | -0.212 |
| AGGAATCG | 0.235 |
| CCGAGCGG | -0.179 |
| CATGGTGC | -0.127 |
| GTCATTTA | 0.311 |
| AGGGTTTG | -0.146 |
| CACCGCGC | -0.208 |
| AAGTTTAG | 0.126 |
| ATCACACG | 0.202 |
| ATTCTGAA | 0.0724 |
| CGGTTTGA | 0.128 |
| CAGGAGCA | -0.197 |
| GCGGCCGA | -0.137 |
| CATCGTCC | 0.0233 |
| AAGACTGC | 0.137 |
| ACACAGCA | 0.074 |
| TAAATAGA | -0.0313 |

| Sequence | PBM E-score |
| --- | --- |
| AGCGACTG | 0.255 |
| AGATGCAA | -0.0465 |
| AACAGCAG | -0.26 |
| AACAGACA | 0.0465 |
| CAATTCCG | -0.128 |
| GACAGACC | -0.14 |
| AGATTCTC | 0.0991 |
| ATCACGAC | 0.225 |
| CTGATCAG | 0.0524 |
| AACAATAG | -0.0575 |
| CGTATCAA | 0.0087 |
| GCACTTGA | 0.0209 |
| TGATTCCA | 0.398 |
| ATGCGCTC | -0.234 |
| ACACCTTA | 0.0237 |
| CACATGTC | 0.0407 |
| AATGCAGG | -0.108 |
| ACATAAGA | 0.137 |
| ATTGTCGA | -0.00639 |
| ATGCGCCG | -0.118 |
| ACTACGAT | 0.233 |
| AGTGCGCA | -0.142 |
| CAGGAGCC | -0.202 |
| GTGGCACA | -0.0722 |
| AGGTTGGC | -0.296 |

| Sequence | PBM E-score |
| --- | --- |
| AGTGTACC | -0.228 |
| CTTTTTTC | 0.118 |
| GCCGGCGC | -0.146 |
| CTGGTTCC | -0.171 |
| TAGCCCGA | -0.192 |
| CCGATGAA | -0.0637 |
| GATCCTGC | -0.186 |
| AGAGTCCT | 0.298 |
| GACCCAGA | -0.115 |
| CACTTATG | 0.0565 |
| TACTGCCA | -0.16 |
| CCCGAAGC | -0.156 |
| CGCGGGAG | 0.0995 |
| TCTTCTCA | 0.197 |
| GCGCCAAC | -0.196 |
| ATTAAAAC | 0.148 |
| ACCAGAGT | 0.179 |
| CCACAGTA | -0.00862 |
| ACGGGCAG | 0.0109 |
| GAGATTAA | 0.245 |
| ATTTGTTA | 0.0563 |
| AGAGGCTC | -0.195 |
